# Assay results from the supplement of paper PMC4604168 (melanoma cell lines).
# The other results are listed elsewhere or left out. Single values are uncertain, as repeats are few or missing.
# Legend:
# Assay in all cases: cell count relative to DMSO control; melanoma cells; higher = more viable cells
# Details in all cases: library dose: standard library concentration; 72 h
# SkMel28 = system: SkMel28
# SkMel2 = system: SkMel2
# SkMel30 = system: SkMel30
# SkMel5 = system: SkMel5
# UACC257 = system: UACC257
# UACC62 = system: UACC62
# WM115 = system: WM115
# WM1716 = system: WM1716
# WM1745 = system: WM1745
# WM3526 = system: WM3526
# 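Further: cells treated in 1,536-well plates, then fixed and DAPI-stained, with nuclei counted from automated high-throughput microscope images.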
Compound,cell count (SkMel28) [%],cell count (SkMel2) [%],cell count (SkMel30) [%],cell count (SkMel5) [%],cell count (UACC257) [%],cell count (UACC62) [%],cell count (WM115) [%],cell count (WM1716) [%],cell count (WM1745) [%],cell count (WM3526) [%]
"NC1(c2ccc(-c3nc4ccn5c(=O)[nH]nc5c4cc3-c3ccccc3)cc2)CCC1 + CN(C)S(=O)(=O)c1ccc2c(c1)/C(=C/c1cc3c([nH]1)CCCC3)C(=O)N2 [SU6656] (first compound 2 µM, partner dose 2 µM)",36.3,65.2,85.3,64.4,84,56.9,43.9,72.6,66.5,63
"C=C(c1ccc(C(=O)O)cc1)c1cc2c(cc1C)C(C)(C)CCC2(C)C [Bexarotene] + CO[C@@H]1[C@H](N(C)C(=O)c2ccccc2)C[C@H]2O[C@]1(C)n1c3ccccc3c3c4c(c5c6ccccc6n2c5c31)C(=O)NC4 [Midostaurin] (first compound 10 µM, partner dose 0.4 µM)",85.6,49.3,76.2,43.7,66.5,62.5,31.4,37.2,52.3,62.5
"CN(c1ncccc1CNc1nc(Nc2ccc3c(c2)CC(=O)N3)ncc1C(F)(F)F)S(C)(=O)=O + Cc1cc(Nc2cc(N3CCN(C)CC3)nc(/C=C/c3ccccc3)n2)n[nH]1 [ENMD2076] (first compound 0.4 µM, partner dose 0.2 µM)",40.4,83.9,104,70.1,92.3,95.1,52.6,71.1,39.9,112
"CN(c1ncccc1CNc1nc(Nc2ccc3c(c2)CC(=O)N3)ncc1C(F)(F)F)S(C)(=O)=O + NCC(=O)Nc1ccc(-n2nc(C(F)(F)F)cc2-c2ccc3c(ccc4ccccc43)c2)cc1 [OSU03012] (first compound 0.4 µM, partner dose 5 µM)",31,35.1,48.4,59.6,75.1,57.5,63.9,82.5,56.4,52.1
"NC1(c2ccc(-c3nc4ccn5c(=O)[nH]nc5c4cc3-c3ccccc3)cc2)CCC1 + Cn1c(Nc2ccc(C(F)(F)F)cc2)nc2cc(Oc3ccnc(-c4ncc(C(F)(F)F)[nH]4)c3)ccc21 [CHIR265] (first compound 2 µM, partner dose 0.4 µM)",24.2,30.9,44.6,34.4,68.7,44.2,20.8,58.1,51.2,31.4
"CCCS(=O)(=O)Nc1ccc(F)c(C(=O)c2c[nH]c3ncc(Cl)cc23)c1F + NCC(=O)Nc1ccc(-n2nc(C(F)(F)F)cc2-c2ccc3c(ccc4ccccc43)c2)cc1 [OSU03012] (first compound 0.4 µM, partner dose 5 µM)",21,28.3,44.4,47.1,77.1,38.6,56.5,47.6,63.1,39
"CCCS(=O)(=O)Nc1ccc(F)c(C(=O)c2c[nH]c3ncc(Cl)cc23)c1F + C=CCNC1=C2C[C@@H](C)C[C@H](OC)[C@H](O)[C@@H](C)/C=C(\C)[C@H](OC(N)=O)[C@@H](OC)/C=C\C=C(/C)C(=O)NC(=CC1=O)C2=O [Tanespimycin] (first compound 0.4 µM, partner dose 0.01 µM)",48.1,112,76.8,93.4,104,47,39.1,76.3,77.2,84.3
"CS(=O)(=O)c1ccc(C(=O)Nc2ccc(Cl)c(-c3ccccn3)c2)c(Cl)c1 [vismodegib] + CC1(C)NC(=O)N(c2ccc([N+](=O)[O-])c(C(F)(F)F)c2)C1=O [nilutamide] (first compound 5 µM, partner dose 5 µM)",140,92.1,91.7,106,100,93.5,110,111,95.4,95.6
"C=C(c1ccc(C(=O)O)cc1)c1cc2c(cc1C)C(C)(C)CCC2(C)C [Bexarotene] + NCC(=O)Nc1ccc(-n2nc(C(F)(F)F)cc2-c2ccc3c(ccc4ccccc43)c2)cc1 [OSU03012] (first compound 10 µM, partner dose 5 µM)",27,20.6,25.2,54.5,77,62.3,80.2,92.1,85.4,44.2
"CN(c1ncccc1CNc1nc(Nc2ccc3c(c2)CC(=O)N3)ncc1C(F)(F)F)S(C)(=O)=O + Cc1cc(N2CCOCC2)cc2[nH]c(-c3c(NC[C@@H](O)c4cccc(Cl)c4)cc[nH]c3=O)nc12 [BMS536924] (first compound 0.4 µM, partner dose 1 µM)",147,94.5,110,128,97.1,102,74.3,104,43.3,99
"C=C(c1ccc(C(=O)O)cc1)c1cc2c(cc1C)C(C)(C)CCC2(C)C [Bexarotene] + Nc1nc(F)nc2c1ncn2[C@@H]1O[C@H](CO)[C@@H](O)[C@@H]1O [fludarabine] (first compound 10 µM, partner dose 1 µM)",3.92,1.71,23.6,28.6,41.3,90.3,107,89,71,23.6
"CN(c1ncccc1CNc1nc(Nc2ccc3c(c2)CC(=O)N3)ncc1C(F)(F)F)S(C)(=O)=O + CNC(=O)c1cc(Oc2ccc(NC(=O)Nc3ccc(Cl)c(C(F)(F)F)c3)cc2)ccn1 [sorafenib] (first compound 0.4 µM, partner dose 2 µM)",75.3,85.4,90.3,77.6,75.3,94.5,78.8,74.6,75.8,92.1
"C=C(c1ccc(C(=O)O)cc1)c1cc2c(cc1C)C(C)(C)CCC2(C)C [Bexarotene] + Cn1nnc2c(C(N)=O)ncn2c1=O [temozolomide] (first compound 10 µM, partner dose 10 µM)",36.3,128,67.2,108,76.6,58,82.2,57.4,78.7,96.5
"C=C(c1ccc(C(=O)O)cc1)c1cc2c(cc1C)C(C)(C)CCC2(C)C [Bexarotene] + CC(=O)c1c(C)c2cnc(Nc3ccc(N4CCNCC4)cn3)nc2n(C2CCCC2)c1=O [palbociclib] (first compound 10 µM, partner dose 0.2 µM)",43.7,50.3,69.1,60,83.5,56.4,85.1,37.8,78.4,51.6
"CCCS(=O)(=O)Nc1ccc(F)c(C(=O)c2c[nH]c3ncc(Cl)cc23)c1F + OCc1c[nH]c2ccccc12 [Indole-3-carbinol] (first compound 0.4 µM, partner dose 4 µM)",55.1,87.7,106,82.9,103,60.7,80.8,80.2,76.5,59.2
"CN(c1ncccc1CNc1nc(Nc2ccc3c(c2)CC(=O)N3)ncc1C(F)(F)F)S(C)(=O)=O + COc1cc(Nc2ncc(F)c(Nc3ccc4c(n3)NC(=O)C(C)(C)O4)n2)cc(OC)c1OC [Tamatinib] (first compound 0.4 µM, partner dose 2 µM)",55.1,70.7,101,55.9,82.5,84,45.4,49.2,25.8,74.3
"CN(c1ncccc1CNc1nc(Nc2ccc3c(c2)CC(=O)N3)ncc1C(F)(F)F)S(C)(=O)=O + Clc1ccc(Nc2nnc(Cc3ccncc3)c3ccccc23)cc1 [vatalanib] (first compound 0.4 µM, partner dose 10 µM)",58,70.2,72.3,38.8,69.2,60.5,64.4,73.4,32.7,68

Compound,cell count (SkMel28) [%],cell count (SkMel2) [%],cell count (SkMel30) [%],cell count (SkMel5) [%],cell count (UACC257) [%],cell count (UACC62) [%],cell count (WM115) [%],cell count (WM1716) [%],cell count (WM1745) [%],cell count (WM3526) [%]
"CS(=O)(=O)c1ccc(C(=O)Nc2ccc(Cl)c(-c3ccccn3)c2)c(Cl)c1 [vismodegib] + O=C(Nc1cccc(Cl)c1)Nc1ncc(CCNc2ncnc3ccsc23)s1 [SNS314] (first compound 5 µM, partner dose 0.004 µM)",62.6,92.4,93,96.5,83.2,76.3,55.1,50.2,95.1,75.4
"C=C(c1ccc(C(=O)O)cc1)c1cc2c(cc1C)C(C)(C)CCC2(C)C [Bexarotene] + Cc1ccc(NC(=O)c2cccc(N(C)C)c2)cc1NC(=O)c1ccc(O)cc1 [ZM336372] (first compound 10 µM, partner dose 10 µM)",65.4,75.6,107,94.5,82.8,73,98.4,97.7,76.2,88.8
"C=C(c1ccc(C(=O)O)cc1)c1cc2c(cc1C)C(C)(C)CCC2(C)C [Bexarotene] + CN(NC(=O)CC(=O)NN(C)C(=S)c1ccccc1)C(=S)c1ccccc1 [STA4783] (first compound 10 µM, partner dose 0.03 µM)",38.8,66.9,94.6,60.8,92,50.8,27.4,83.6,25.5,103
"CS(=O)(=O)c1ccc(C(=O)Nc2ccc(Cl)c(-c3ccccn3)c2)c(Cl)c1 [vismodegib] + C#Cc1cccc(Nc2ncnc3cc(OCCOC)c(OCCOC)cc23)c1 [erlotinib] (first compound 5 µM, partner dose 4 µM)",42.2,76.5,53.5,73.5,95.4,65,62.9,78.2,60.7,69.4
"NC1(c2ccc(-c3nc4ccn5c(=O)[nH]nc5c4cc3-c3ccccc3)cc2)CCC1 + C[C@]1(c2nc3c(C(N)=O)cccc3[nH]2)CCCN1 [Veliparib] (first compound 2 µM, partner dose 7 µM)",61.4,71.5,87.8,43.5,76.8,71.6,63.8,65.3,82.7,59.7
"NC1(c2ccc(-c3nc4ccn5c(=O)[nH]nc5c4cc3-c3ccccc3)cc2)CCC1 + CNC(=O)c1cc(Oc2ccc(NC(=O)Nc3ccc(Cl)c(C(F)(F)F)c3)cc2)ccn1 [sorafenib] (first compound 2 µM, partner dose 2 µM)",57.1,65.6,91.7,81,98.2,56.9,76.9,98.5,83.3,62.5
"C=C(c1ccc(C(=O)O)cc1)c1cc2c(cc1C)C(C)(C)CCC2(C)C [Bexarotene] + CN(C)S(=O)(=O)c1ccc2c(c1)/C(=C/c1cc3c([nH]1)CCCC3)C(=O)N2 [SU6656] (first compound 10 µM, partner dose 2 µM)",55.5,104,120,104,88.1,63.9,49,68,68.7,95.2
"CCCS(=O)(=O)Nc1ccc(F)c(C(=O)c2c[nH]c3ncc(Cl)cc23)c1F + Nc1nc(F)nc2c1ncn2[C@@H]1O[C@H](CO)[C@@H](O)[C@@H]1O [fludarabine] (first compound 0.4 µM, partner dose 1 µM)",1.34,1.39,21.7,41.7,28.7,47.5,105,72.7,95.6,27.2
"CN(c1ncccc1CNc1nc(Nc2ccc3c(c2)CC(=O)N3)ncc1C(F)(F)F)S(C)(=O)=O + C#Cc1cccc(Nc2ncnc3cc(OCCOC)c(OCCOC)cc23)c1 [erlotinib] (first compound 0.4 µM, partner dose 4 µM)",56.9,58,71.5,44.3,94.5,55.9,64.1,76,40.9,69
"NC1(c2ccc(-c3nc4ccn5c(=O)[nH]nc5c4cc3-c3ccccc3)cc2)CCC1 + Cn1nnc2c(C(N)=O)ncn2c1=O [temozolomide] (first compound 2 µM, partner dose 10 µM)",44.4,97.3,61.4,61.6,87.2,61.9,67.6,54.8,82.1,59.4
"NC1(c2ccc(-c3nc4ccn5c(=O)[nH]nc5c4cc3-c3ccccc3)cc2)CCC1 + C[C@@H](Oc1cc(-c2cnn(C3CCNCC3)c2)cnc1N)c1c(Cl)ccc(F)c1Cl [Crizotinib] (first compound 2 µM, partner dose 1 µM)",26.5,71.5,82.1,45.8,89.1,60.7,35.5,68.7,51.4,57.6
"CS(=O)(=O)c1ccc(C(=O)Nc2ccc(Cl)c(-c3ccccn3)c2)c(Cl)c1 [vismodegib] + Cn1cncc1[C@@](N)(c1ccc(Cl)cc1)c1ccc2c(c1)c(-c1cccc(Cl)c1)cc(=O)n2C [tipifarnib] (first compound 5 µM, partner dose 0.05 µM)",104,77,109,67,104,59.2,67,81.8,81.3,73
"CS(=O)(=O)c1ccc(C(=O)Nc2ccc(Cl)c(-c3ccccn3)c2)c(Cl)c1 [vismodegib] + Nc1ccn([C@@H]2O[C@H](CO)[C@@H](O)C2(F)F)c(=O)n1 [gemcitabine] (first compound 5 µM, partner dose 0.002 µM)",143,118,132,105,114,92.6,102,97.2,65.7,127
"C=C(c1ccc(C(=O)O)cc1)c1cc2c(cc1C)C(C)(C)CCC2(C)C [Bexarotene] + NC(=O)Nc1cc(-c2cccc(F)c2)sc1C(=O)N[C@H]1CCCNC1 [AZD7762] (first compound 10 µM, partner dose 0.1 µM)",70,97.1,84.4,111,74.2,73.5,72.3,55.6,86.7,59.3
"CS(=O)(=O)c1ccc(C(=O)Nc2ccc(Cl)c(-c3ccccn3)c2)c(Cl)c1 [vismodegib] + CC(C)(C)c1cnc(CSc2cnc(NC(=O)C3CCNCC3)s2)o1 [SNS-032] (first compound 5 µM, partner dose 0.05 µM)",107,78.2,85,69.4,112,49.3,113,92.1,77.9,105
"CS(=O)(=O)c1ccc(C(=O)Nc2ccc(Cl)c(-c3ccccn3)c2)c(Cl)c1 [vismodegib] + Cn1c(=O)n(-c2ccc(C(C)(C)C#N)cc2)c2c3cc(-c4cnc5ccccc5c4)ccc3ncc21 [NVP-BEZ235] (first compound 5 µM, partner dose 0.02 µM)",48.3,58.9,76.6,64.2,111,60.4,92.2,82.4,103,63.1
